Measured values taken from ChEMBL document CHEMBL5726550, “Pyrrolo [2,3-B] pyridine CDK9 kinase inhibitors” (2017).

Target: CDK9/cyclin T1 (Homo sapiens, UniProt O60563+P50750)
Sequence (O60563 whole entry): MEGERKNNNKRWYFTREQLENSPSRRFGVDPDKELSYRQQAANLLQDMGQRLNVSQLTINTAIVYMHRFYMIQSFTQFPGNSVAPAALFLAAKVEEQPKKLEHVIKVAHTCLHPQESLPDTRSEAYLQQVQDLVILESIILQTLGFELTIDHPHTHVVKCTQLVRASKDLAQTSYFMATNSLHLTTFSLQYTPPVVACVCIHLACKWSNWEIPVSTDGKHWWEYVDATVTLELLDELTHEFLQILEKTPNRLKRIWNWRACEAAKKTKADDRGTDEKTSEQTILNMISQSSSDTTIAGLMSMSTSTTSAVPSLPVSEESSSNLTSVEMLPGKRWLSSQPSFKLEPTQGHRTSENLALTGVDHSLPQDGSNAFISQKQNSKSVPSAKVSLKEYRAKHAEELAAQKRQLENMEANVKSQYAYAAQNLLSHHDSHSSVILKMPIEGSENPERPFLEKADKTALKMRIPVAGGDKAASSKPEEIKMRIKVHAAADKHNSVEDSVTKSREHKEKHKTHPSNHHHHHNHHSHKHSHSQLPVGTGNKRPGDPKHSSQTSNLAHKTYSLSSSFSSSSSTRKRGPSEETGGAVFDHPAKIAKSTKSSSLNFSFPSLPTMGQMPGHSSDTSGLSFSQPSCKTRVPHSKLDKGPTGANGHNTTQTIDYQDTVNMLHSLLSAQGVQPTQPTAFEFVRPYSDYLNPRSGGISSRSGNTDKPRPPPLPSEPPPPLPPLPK
Sequence (P50750 whole entry): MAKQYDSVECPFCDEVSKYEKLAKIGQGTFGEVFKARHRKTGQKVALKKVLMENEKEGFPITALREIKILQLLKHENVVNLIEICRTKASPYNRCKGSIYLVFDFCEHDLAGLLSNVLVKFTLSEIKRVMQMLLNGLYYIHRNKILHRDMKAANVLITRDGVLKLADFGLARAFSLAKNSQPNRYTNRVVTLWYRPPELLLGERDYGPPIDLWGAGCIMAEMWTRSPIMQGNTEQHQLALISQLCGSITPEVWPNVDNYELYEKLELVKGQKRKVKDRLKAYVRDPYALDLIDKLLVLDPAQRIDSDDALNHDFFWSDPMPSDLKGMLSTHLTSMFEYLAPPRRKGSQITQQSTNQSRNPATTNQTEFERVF

| SMILES | IC50 |
| --- | --- |
| COc1ccc(F)cc1-c1c(F)cnc2[nH]c(C3=CC4CCC(C3)N4CC(=O)O)cc12 (stereo not drawn) | 81 nM |
| COc1ccc(F)cc1-c1ccnc2[nH]c(C3CC4CN(CC(N)=O)CC4C3)cc12 (stereo not drawn) | 240 nM |
| COc1ccc(F)cc1-c1ccnc2[nH]c(C3CC4CN(C(=O)CO)CC4C3)cc12 (stereo not drawn) | 130 nM |
| COc1ccc(F)cc1-c1c(C#N)cnc2[nH]c(C3=CC4CN(CC(=O)N5CC(O)C5)CC4C3)cc12 (stereo not drawn) | 92 nM |
| COc1ccc(F)cc1-c1ccnc2[nH]c(C3CC4CN(CC(O)CO)CC4C3)cc12 (stereo not drawn) | 340 nM |
| COc1ccc(F)cc1-c1ccnc2[nH]c(C3CC4CN(CC(=O)N(C)C5CC(O)C5)CC4C3)cc12 (stereo not drawn) | 290 nM |
| COc1ccc(F)cc1-c1ccnc2[nH]c(C3=CCC(N(C(=O)O)S(=O)(=O)N4CC(O)C4)CC3)cc12 (stereo not drawn) | 32 nM |
| COc1ccc(F)cc1-c1ccnc2[nH]c(C3=CCC([C@@](N)(C(=O)O)c4ccccc4)CC3)cc12 (stereo partly drawn) | 63 nM |
| COc1ccc(F)cc1-c1ccnc2c1cc(C1=CCC(C(=O)O)CC1)n2C[C@H](O)CO (stereo partly drawn) | 65 nM |
| CS(=O)(=O)N1CCC(c2cc3c(-c4cc(NCc5ccncc5)ccc4F)ccnc3[nH]2)CC1 | 91 nM |
| COc1ccc(F)cc1-c1ccnc2[nH]c(C3=CC4CN(CC(=O)O)CC4C3)cc12 (stereo not drawn) | 71 nM |
| COc1ccc(F)cc1-c1ccnc2[nH]c(C3=CCCN(CC(=O)N4CCC[C@H]4CO)CC3)cc12 | 120 nM |
| COc1ccc(F)cc1-c1ccnc2[nH]c(C3=CCN(C4CC(C(=O)O)C4)CC3)cc12 (stereo not drawn) | 79 nM |
| COc1ccc(F)cc1-c1c(Cl)cnc2[nH]c(C3=CCN([C@H]4CC[C@H](CC(=O)O)CC4)CC3)cc12 | 140 nM |
| CS(=O)(=O)N1CCC(c2cc3c(-c4cc(NCc5ccc(C(N)=O)cc5)ccc4F)ccnc3[nH]2)CC1 | 190 nM |
| COc1ccc(F)cc1-c1ccnc2[nH]c(C3CC4CN(C(=O)C5CC(O)C5)CC4C3)cc12 (stereo not drawn) | 160 nM |
| COc1ccc(F)cc1-c1ccnc2[nH]c(C3CC4CN(C(=O)NC#N)CC4C3)cc12 (stereo not drawn) | 59 nM |
| CNS(=O)(=O)CC(=O)N1CC2CC(c3cc4c(-c5cc(F)ccc5OC)ccnc4[nH]3)CC2C1 (stereo not drawn) | 64 nM |
| COc1ccc(F)cc1-c1c(Cl)cnc2[nH]c(C3=CCN([C@H]4CC[C@@H](CC(=O)O)CC4)CC3)cc12 | 77 nM |

| SMILES | IC50 |
| --- | --- |
| COc1ccc(F)cc1-c1ccnc2[nH]c(C3CC4CN(CC(=O)N(C)CCO)CC4C3)cc12 (stereo not drawn) | 120 nM |
| COc1ccc(F)cc1-c1c(F)cnc2[nH]c(C3=CC4CN(CC(=O)O)CC4C3)cc12 (stereo not drawn) | 130 nM |
| CC(C)(O)C(=O)N1CCC=C(c2cc3c(-c4cccc(F)c4F)ccnc3[nH]2)C1 | 790 nM |
| CCOc1cc(F)c(F)cc1-c1ccnc2[nH]c(C3=CCNCC3)cc12 | 68 nM |
| COc1ccc(F)cc1-c1c(C#N)cnc2[nH]c(C3=CC4CN(CC(=O)O)CC4C3)cc12 (stereo not drawn) | 130 nM |
| COc1ccc(F)cc1-c1ccnc2[nH]c(C3CC4CN(CC(=O)N(C)C)CC4C3)cc12 (stereo not drawn) | 150 nM |
| COc1ccc(F)cc1-c1ccnc2[nH]c(C3CC4CN(CC(=O)N5CC(O)C5)CC4C3)cc12 (stereo not drawn) | 290 nM |
| COc1ccc(F)cc1-c1ccnc2[nH]c(C3CC4CN(C(C)=O)CC4C3)cc12 (stereo not drawn) | 140 nM |
| COc1ccc(F)cc1-c1ccnc2[nH]c(C3CC4CN(C(=O)CC#N)CC4C3)cc12 (stereo not drawn) | 75 nM |
| COc1ccc(F)cc1-c1ccnc2[nH]c(C3CCN(Cc4ccc5c(c4)OCO5)CC3)cc12 | 61 nM |
| CCOC(=O)NS(=O)(=O)N1CC=C(c2cc3c(-c4cc(F)ccc4OC)c(C)cnc3[nH]2)CC1 | 130 nM |
| COc1ccc(F)cc1-c1ccnc2[nH]c(C3=CCN(c4c(N)c(=O)c4=O)CC3)cc12 | 30 nM |
| CNC(=O)N1CC2CC(c3cc4c(-c5cc(F)ccc5OC)ccnc4[nH]3)CC2C1 (stereo not drawn) | 30 nM |
| CC(=O)N1CC=C(c2cc3c(-c4cc(OCc5cc(F)cc(F)c5)ccc4F)ccnc3[nH]2)CC1 | 280 nM |
| COc1ccc(F)cc1-c1c(C#N)cnc2[nH]c(C3=CC4CCC(C3)N4CC(=O)O)cc12 (stereo not drawn) | 57 nM |
| COc1ccc(F)cc1-c1ccnc2[nH]c(C3CC4CN(CC(=O)N5CCC[C@H]5CO)CC4C3)cc12 (stereo partly drawn) | 130 nM |
| COc1ccc(F)cc1-c1ccnc2[nH]c(C3=CCC(NC45CC(C(=O)O)(C4)C5)CC3)cc12 (stereo not drawn) | 78 nM |
| COc1ccc(F)cc1-c1ccnc2[nH]c(C3=CCN(CC(=O)N4CCC4O)C3)cc12 (stereo not drawn) | 74 nM |
| COc1ccc(F)cc1-c1ccnc2[nH]c(C3=CCN(C4CC5CC(CC(=O)O)CC5C4)CC3)cc12 (stereo not drawn) | 390 nM |
